# Assay results reported in PubChem BioAssay (Tox21).
# Inconclusive results, whose numbers are uncertain, are shown with a selection of clear calls. For part of these data: Potencies beside an inconclusive call are fits to weak or partial responses and may not hold up. The source made the active and inactive calls. Unless noted, the call rests on the fitted dose curve.
# Key:
# [1] = target: Estrogen receptor beta (Homo sapiens) (UniProt Q92731); experiment: qHTS assay to identify small molecule antagonists of the estrogen receptor beta (ER-beta) signaling pathway (AID 1259378; active means well fitted inhibition curve with a large enough effect in the signal ratio in the repeat runs, not every such curve was filed as active; inconclusive means weak or mixed curves, or effect the other way; inactive means no such curve, though single readings can be large or run the other way; the % refers to the signal ratio; further: potency means the concentration at half of the fitted maximal effect; on activity, negative = inhibition: on the % scale 0 is the no-effect control and ±100 the full control effect); settings: ER-beta-UAS-bla HEK293T, beta-lactamase FRET ratio, 16 h; activity, negative = inhibition: at 92.4 µM (top of the series) unless noted
# Sequence of UniProt Q92731 (Q92731 whole entry, looked up): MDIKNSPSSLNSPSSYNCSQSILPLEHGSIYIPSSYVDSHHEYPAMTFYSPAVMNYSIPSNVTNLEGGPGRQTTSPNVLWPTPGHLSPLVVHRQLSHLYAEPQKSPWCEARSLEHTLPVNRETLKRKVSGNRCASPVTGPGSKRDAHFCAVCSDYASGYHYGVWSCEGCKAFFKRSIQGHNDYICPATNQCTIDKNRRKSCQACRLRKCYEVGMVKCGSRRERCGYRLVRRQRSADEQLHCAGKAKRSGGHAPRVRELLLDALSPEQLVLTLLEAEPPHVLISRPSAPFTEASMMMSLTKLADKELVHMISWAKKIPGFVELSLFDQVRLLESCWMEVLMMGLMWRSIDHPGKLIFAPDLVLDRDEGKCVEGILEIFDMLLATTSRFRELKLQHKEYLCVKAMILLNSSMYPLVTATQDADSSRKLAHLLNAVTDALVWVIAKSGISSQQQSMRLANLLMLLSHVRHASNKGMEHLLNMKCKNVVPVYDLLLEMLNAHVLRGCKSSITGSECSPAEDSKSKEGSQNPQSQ
# In short: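 ER-beta-UAS-bla HEK293T cells in 2% charcoal-stripped FBS medium treated with compound plus 1nM final 17-beta-estradiol for 16 hr at 37C. Beta-lactamase reporter read by FRET substrate fluorescence after 2 hours at room temperature.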
# [2] = qHTS assay to identify small molecule antagonists of the estrogen receptor beta (ER-beta) signaling pathway - cell viability counter screen (AID 1259382; active means well fitted curve in the direction sought with a large enough effect in the repeat runs; inconclusive means weak or mixed curves; inactive means no such curve, though single readings can be large; an effect the other way counts as inactive or inconclusive; further: potency means the concentration at half of the fitted maximal effect; nearly all actives have a fitted effect of over 55% in size)
# In short: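 Agonist-stimulated (1nM E2) ER-beta-UAS-bla HEK293T cells are incubated with library compounds for 16 hr at 37C. Cell viability is then assessed in the reporter-assay wells by adding CellTiter-Glo and reading luminescence after 30 min.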
# [3] = target: Thyrotropin receptor (Homo sapiens) (UniProt P16473); experiment: qHTS assay to identify small molecule antagonists of the thyroid stimulating hormone receptor (TSHR) signaling pathway (AID 1259385); settings: TSHR-HEK293 cAMP HTRF, TSH-stimulated antagonist mode; activity change, negative = inhibition: at 92.4 µM (top of the series) unless noted; further: nearly all actives have a fitted effect of over 20% in size; further: potency means the concentration at half of the fitted maximal effect; on activity change, negative = inhibition: on the % scale 0 is the no-effect control and ±100 the full control effect
# Sequence of UniProt P16473 (P16473 whole entry, looked up): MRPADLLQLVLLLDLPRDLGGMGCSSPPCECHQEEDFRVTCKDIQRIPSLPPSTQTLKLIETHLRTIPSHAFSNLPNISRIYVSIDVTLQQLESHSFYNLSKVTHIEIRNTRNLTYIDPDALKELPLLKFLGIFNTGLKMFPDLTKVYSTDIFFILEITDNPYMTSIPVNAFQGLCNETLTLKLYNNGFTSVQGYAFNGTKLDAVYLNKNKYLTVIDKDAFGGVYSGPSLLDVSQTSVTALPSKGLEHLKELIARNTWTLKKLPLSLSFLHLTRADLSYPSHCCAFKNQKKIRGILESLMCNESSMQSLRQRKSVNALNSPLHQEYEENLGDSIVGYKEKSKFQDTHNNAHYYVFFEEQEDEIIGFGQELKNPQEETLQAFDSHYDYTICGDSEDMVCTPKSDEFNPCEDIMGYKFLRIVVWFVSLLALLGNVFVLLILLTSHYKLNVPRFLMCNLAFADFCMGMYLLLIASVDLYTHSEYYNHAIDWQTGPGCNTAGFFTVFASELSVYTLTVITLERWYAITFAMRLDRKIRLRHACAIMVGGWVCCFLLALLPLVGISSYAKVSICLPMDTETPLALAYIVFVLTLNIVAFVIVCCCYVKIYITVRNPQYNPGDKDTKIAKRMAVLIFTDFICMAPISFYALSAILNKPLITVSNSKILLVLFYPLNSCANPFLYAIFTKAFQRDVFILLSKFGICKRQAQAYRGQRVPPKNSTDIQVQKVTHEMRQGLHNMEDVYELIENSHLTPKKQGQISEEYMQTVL
# In short: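 TSHR-HEK293 cells (800/well) plated 18 h, then compounds with Ro20-1724 and TSH at 1.5 ng/mL final, 30 min at room temperature. cAMP quantified by HTRF (cAMP-d2/anti-cAMP-cryptate, 1 h); 15 concentrations in triplicate.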
# [4] = qHTS assay to identify small molecule agonists of the estrogen receptor beta (ER-beta) signaling pathway - cell viability counter screen (AID 1259380; active means well fitted curve in the direction sought with a large enough effect in the repeat runs; inconclusive means weak or mixed curves; inactive means no such curve, though single readings can be large; an effect the other way counts as inactive or inconclusive; further: on the % scale 0 is the no-effect control and ±100 the full control effect; nearly all actives have a fitted effect of over 30% in size)
# In short: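 Cells used were ER-beta-UAS-bla HEK293T in medium with 2% charcoal-stripped FBS. They were treated for 16 hr at 37C. Viability came from CellTiter-Glo luminescence.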
# [5] = target: Progesterone receptor (Homo sapiens) (UniProt P06401); experiment: qHTS assay to identify small molecule agonists of the progesterone receptor (PR) signaling pathway (AID 1346784); settings: PR-UAS-bla HEK293T, beta-lactamase FRET ratio, 16 h; activation: at 92.4 µM (top of the series) unless noted; further: potency means the concentration at half of the fitted maximal effect; nearly all actives have a fitted effect of over 30% in size
# Sequence of UniProt P06401 (P06401 whole entry, looked up): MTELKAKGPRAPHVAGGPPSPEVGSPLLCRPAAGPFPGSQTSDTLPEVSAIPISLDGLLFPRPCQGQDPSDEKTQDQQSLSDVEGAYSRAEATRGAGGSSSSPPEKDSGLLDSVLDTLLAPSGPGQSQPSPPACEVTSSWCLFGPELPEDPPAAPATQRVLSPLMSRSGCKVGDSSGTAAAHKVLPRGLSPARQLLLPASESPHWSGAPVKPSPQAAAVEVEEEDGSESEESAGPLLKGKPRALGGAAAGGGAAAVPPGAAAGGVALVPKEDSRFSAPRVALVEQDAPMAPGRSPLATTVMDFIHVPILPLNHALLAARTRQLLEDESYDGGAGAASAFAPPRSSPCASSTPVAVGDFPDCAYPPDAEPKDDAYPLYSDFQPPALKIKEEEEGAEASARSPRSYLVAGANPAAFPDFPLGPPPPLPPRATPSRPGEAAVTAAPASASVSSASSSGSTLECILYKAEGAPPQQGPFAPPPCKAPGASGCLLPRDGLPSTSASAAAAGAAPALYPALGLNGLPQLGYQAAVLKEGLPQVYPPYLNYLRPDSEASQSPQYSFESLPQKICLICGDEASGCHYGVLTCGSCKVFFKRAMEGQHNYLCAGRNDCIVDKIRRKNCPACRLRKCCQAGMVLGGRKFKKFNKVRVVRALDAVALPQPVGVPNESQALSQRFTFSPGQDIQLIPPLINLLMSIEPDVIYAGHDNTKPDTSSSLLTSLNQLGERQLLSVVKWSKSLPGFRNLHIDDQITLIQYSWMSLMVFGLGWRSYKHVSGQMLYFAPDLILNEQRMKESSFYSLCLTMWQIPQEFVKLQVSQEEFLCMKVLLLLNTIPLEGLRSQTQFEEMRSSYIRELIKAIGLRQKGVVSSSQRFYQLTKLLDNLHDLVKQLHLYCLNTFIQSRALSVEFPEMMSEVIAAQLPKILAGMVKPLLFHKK
# In short: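 Agonist qHTS: compounds pinned onto 3,000 PR-UAS-bla HEK 293T cells per well in charcoal-stripped serum medium, 16hr at 37C, then beta-lactamase activity measured by LiveBLAzer FRET fluorescence after 2 hours at room temperature.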
# [6] = qHTS assay to identify small molecule agonists of the estrogen receptor alpha (ER-alpha) signaling pathway in the presence of an antagonist - cell viability counter screen (AID 1259386; active means well fitted curve in the direction sought with a large enough effect in the repeat runs; inconclusive means weak or mixed curves; inactive means no such curve, though single readings can be large; an effect the other way counts as inactive or inconclusive;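 further: potency means the concentration at half of the fitted maximal effect; cells exposed to compounds for 22 h at 37 °C before the viability read; nearly all actives have a fitted effect of over 30% in size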)
# In short: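 ICI-182,780 at 10.0nM final accompanies the compound titration (15 concentrations, 22hr, 37C) on VM7Luc4E2 cells. The CellTiter-Fluor fluorescence readout runs in the same wells as the luciferase assay.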
# [7] = qHTS assay to identify small molecule agonists or antagonists of the thyroid stimulating hormone receptor (TSHR) signaling pathway - wild type cell line counter screen (AID 1259384); settings: HEK293 wild type, cAMP HTRF counter-screen; cAMP activity change: at 92.4 µM (top of the series), stronger effect = higher value unless noted; further: on the % scale 0 is the no-effect control and ±100 the full control effect
# In short: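 Wild-type Hek293 cells, 800/well, 18 h at 37C, then compound with Ro20-1724 for 30 min RT. cAMP by HTRF (cAMP-d2/anti-cAMP cryptate), 1 h RT, fluorescence read. 15 concentrations, triplicates.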
# [8] = target: Androgen receptor (Homo sapiens) (UniProt P10275); experiment: qHTS assay to identify small molecule agonists of the androgen receptor (AR) signaling pathway in the presence of an antagonist (AID 1259381); settings: MDA-kb2 MMTV-luciferase, AR agonist + nilutamide, 16 h; further: potency means the concentration at half of the fitted maximal effect; nearly all actives have a fitted effect of over 15% in size
# Sequence of UniProt P10275 (P10275 whole entry, looked up): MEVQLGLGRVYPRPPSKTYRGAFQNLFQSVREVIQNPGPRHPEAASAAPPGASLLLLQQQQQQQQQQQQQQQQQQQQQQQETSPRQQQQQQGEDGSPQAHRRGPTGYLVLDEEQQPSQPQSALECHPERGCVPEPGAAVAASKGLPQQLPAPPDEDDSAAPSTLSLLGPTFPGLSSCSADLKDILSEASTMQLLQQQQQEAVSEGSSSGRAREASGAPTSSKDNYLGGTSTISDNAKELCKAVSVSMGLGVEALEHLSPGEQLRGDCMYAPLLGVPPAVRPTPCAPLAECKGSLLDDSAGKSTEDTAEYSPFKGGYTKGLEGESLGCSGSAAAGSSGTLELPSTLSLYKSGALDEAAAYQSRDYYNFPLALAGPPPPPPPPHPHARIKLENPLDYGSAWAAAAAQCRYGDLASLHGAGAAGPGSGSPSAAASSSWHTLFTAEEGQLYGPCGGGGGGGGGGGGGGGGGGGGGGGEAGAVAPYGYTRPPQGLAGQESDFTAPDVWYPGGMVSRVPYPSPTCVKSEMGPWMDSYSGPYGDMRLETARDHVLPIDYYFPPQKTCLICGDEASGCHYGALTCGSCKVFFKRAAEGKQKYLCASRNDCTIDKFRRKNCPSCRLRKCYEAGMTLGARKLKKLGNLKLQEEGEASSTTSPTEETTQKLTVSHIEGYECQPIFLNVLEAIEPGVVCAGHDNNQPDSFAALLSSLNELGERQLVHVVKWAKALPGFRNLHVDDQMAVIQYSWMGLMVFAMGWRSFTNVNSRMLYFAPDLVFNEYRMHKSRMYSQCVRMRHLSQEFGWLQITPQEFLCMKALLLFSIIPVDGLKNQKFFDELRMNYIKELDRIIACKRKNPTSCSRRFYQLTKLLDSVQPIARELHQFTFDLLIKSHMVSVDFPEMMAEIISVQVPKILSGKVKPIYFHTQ
# In short: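 Using human MDA-kb2 cells with an MMTV promoter–luciferase construct (AR and GR response elements), agonist activity is scored under 3.0uM nilutamide (final) co-treatment; 16hr incubation, 37C, luminescence readout via ONE-Glo.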
# Tags describe the fitted curve by direction and shape or compound fluorescence and quenching.
smiles,measurement,setting,value
CC[C@@H]([C@H](C)O)n1ncn(-c2ccc(N3CCN(c4ccc(OC[C@@H]5CO[C@@](Cn6cncn6)(c6ccc(F)cc6F)C5)cc4)CC3)cc2)c1=O,Potency,[1],active: 5.96 µM
same,Potency,[2],active: 9.44 µM
same,Potency,[3],active: 29.8 µM
CCCCCCCCCCCSCC(=O)O,Potency,[1],inconclusive: 30.6 µM
same,Potency,[2],active: 24.3 µM
COC(=O)C(C)=O,Potency,[1],inactive
same,Potency,[4],inactive
same,Potency,[5],"inconclusive: 30.8 µM [falling, partial curve, poor fit]"
C[C@@H]1[C@H](O)[C@@H](C)/C=C/C=C\C=C\C=C\C=C\C=C\C=C\[C@H](O[C@@H]2O[C@H](C)[C@@H](O)[C@H](N)[C@@H]2O)C[C@@H]2O[C@](O)(C[C@@H](O)C[C@@H](O)[C@H](O)CC[C@@H](O)C[C@@H](O)CC(=O)O[C@H]1C)C[C@H](O)[C@H]2C(=O)O (stereo in doubt),Potency,[1],inconclusive: 61.1 µM [single point]
same,Potency,[2],"inconclusive: 68.6 µM [cytotoxic, single point]"
same,"activity change, negative = inhibition",[3],inconclusive: -13.2%
same,Potency,[6],"inconclusive: 68.6 µM [cytotoxic, partial curve]"
Sc1nc2ccccc2s1,Potency,[1],inactive
same,cAMP activity change,[7],inconclusive: 0.549%
O=C(C(=O)c1ccco1)c1ccco1,Potency,[1],inactive
same,Potency,[8],"inconclusive: 69.1 µM [rising, single point]"
same,cAMP activity change,[7],inconclusive: 6.32%
CC(C)CC(=O)OCc1ccccc1,Potency,[1],inactive
same,Potency,[6],"inconclusive: 13.7 µM [cytotoxic, single point]"
Cc1cccc(CN2CCN(C(c3ccccc3)c3ccc(Cl)cc3)CC2)c1 (stereo unspecified),"activity, negative = inhibition",[1],inconclusive: -22.7% [at 42.5 µM]
same,Potency,[3],"inconclusive: 26.6 µM [falling, partial curve]"
